Measured values as given in patent EP4591887A1, “GPC3 ANTIBODY-DRUG CONJUGATE AND USE THEREOF” (priority 2022, dated 2024).

How the values were obtained:
[1] = test system: PDX model LIV#219 of nude mice with human liver cancer; assay: Antitumor activity in LIV#219 liver cancer PDX model; assay type: in vivo, BALB/c nude mice; settings: 3 mg/kg; for relative tumor proliferation rate (T/C) (%) / tumor growth inhibition rate (TGI %): Day 26; for inhibitory activity on tumor growth: result in words; for tolerance of tumor-bearing mice: result in words (animal body weight, Figure 17)
Method: The antitumor activity of GPC3-ADCs was tested in an LIV#219 liver cancer PDX model. The model has a higher expression level of GPC3 RNA, and a positive expression of GPC3 as confirmed by FACS analysis.
The process of the establishment of a PDX model of nude mice with human liver cancer was as follows: A tumor tissue with a volume size of about 15-30 mm^3 was transplanted subcutaneously under the back of the BALB/c nude mice. When the tumor volume reached 250-360 mm^3, the mice were divided into a total of 4 groups by a randomized block method, with 6 mice per group, ensuring uniformity in tumor volume and balance in body weight between these groups. The groups included a vehicle group, a 3 mg/kg GC33-L1-D1 administration group, a 3 mg/kg Hu 52H5D3B8-7-L1-D1 administration group, and a 3 mg/kg Hu 52H5D3B8-8-L1-D1 administration group.
Data analysis: During the experiment, the tumor volume was measured twice a week. The calculation formula for the tumor volume (TV) is: TV = l × w^2 / 2, in which l and w represent the measured length and width of the tumor, respectively. According to the measurement results, the relative tumor volume (RTV) was calculated by RTV = Vf / V0, in which V0 is the tumor volume measured at the time of grouping for administration (i.e., Day 0), and Vf is the tumor volume measured on the last day. Relative tumor proliferation rate (T/C) (%) = (RTV in drug administration group / RTV in vehicle group) × 100%. Tumor growth inhibition rate (TGI %) = (average tumor volume in vehicle group - average tumor volume in drug administration group) / average tumor volume in vehicle group × 100%. When T/C (%) ≤ 40% and P < 0.05, the test sample was believed to have a significant inhibitory effect on tumor growth.

[2] = test system: HepG2 cells; assay: FACS binding of GPC3 antibody and ADC to HepG2 cells; design: species or system Human; settings: 4°C 60 minutes
Text: It was confirmed by an FACS experiment that the binding of ADC was basically unaffected by Cys conjugation, and at the same time Hu 52H5D3B8-8 ADC and GC33 ADC were compared for cell binding.
After digestion by trypsin-EDTA, the cultured HepG2 cells were collected. After centrifugation, the cells were resuspended in FACS buffer (PBS + 2% FBS), the cell density was adjusted, and the cells were dispensed to a 96-well U-bottom cell culture plate, such that each well contained 200,000-500,000 cells. The antibody or ADC diluted with FACS buffer in a 4-fold gradient manner was added and uniformly mixed, such that the final starting concentration of each sample was finally 10 µg/mL. The 96-well plate was incubated at 4°C for 60 minutes. The cells in the wells were thoroughly washed with FACS buffer to remove unbound antibodies and ADCs. Goat anti-Human IgG (H+L) Secondary Antibody, Alexa Fluor 488 (Invitrogen), diluted with FACS buffer at 1 : 1,000 was added and incubated at 4°C in the dark for 30 minutes. The cells in the wells were washed with FACS buffer to remove unbound secondary antibodies. The cell sample was analyzed for fluorescence signal by CytoFLEX flow cytometer (Beckman Coulter). […] Table 3: Binding (EC50) of each GPC3 antibody and ADC to HepG2 cells

Molecule | relative tumor proliferation rate (T/C) (%) [1] | tumor growth inhibition rate (TGI %) [1] | inhibitory activity on tumor growth [1] | tolerance of tumor-bearing mice [1] | EC50 [2]
Hu 52H5D3B8-7-L1-D1 (conjugate) heavy: EVQLVQSGAEVKKPGASVKVSCKASGYTFTDYEMHWVRQAPGQGLEWMGAIHPGSGGTAYNQKFKGRVTMTADKSISTAYMELSRLRSDDTAVYYCTRFYSYAYWGQGTLVTVSS[human IgG1 constant region not printed] light: DVVMTQTPLSLSVTPGQPASISCRSSQSLVHSNGNTYLQWYLQKPGQSPQLLIYKVSNRFSGVPDRFSGSGSGTDFTLKISRVEAEDVGVYYCSQSIHVPYTFGGGTKVEIKRTVAAPSVFIFPPSDEQLKSGTASVVCLLNNFYPREAKVQWKVDNALQSGNSQESVTEQDSKDSTYSLSSTLTLSKADYEKHKVYACEVTHQGLSSPVTKSFNRGEC | 33.58% | 66.42% | significant inhibitory activities on tumor growth | well tolerated | 
Hu 52H5D3B8-8-ZLA (conjugate) heavy: EVQLVQSGAEVKKPGASVKVSCKASGYTFTDYEMHWVRQAPGQGLEWMGAIHPGSGGTAYNQKFKGRVTMTADKSISTAYMELSRLRSDDTAVYYCTRFYSYAYWGQGTLVTVSS[human IgG1 constant region not printed] light: DVVMTQTPLSLSVTPGQPASISCRSSQSLVHSNGNTYLQWYLQKPGQSPQLLIYKVSNRFSGVPDRFSGSGSGTDFTLKISRVEAEDVGVYFCSQSIHVPYTFGGGTKVEIKRTVAAPSVFIFPPSDEQLKSGTASVVCLLNNFYPREAKVQWKVDNALQSGNSQESVTEQDSKDSTYSLSSTLTLSKADYEKHKVYACEVTHQGLSSPVTKSFNRGEC |  |  |  |  | 0.0569 µg/mL
Hu 52H5D3B8-8-L1-D1 (conjugate) heavy: EVQLVQSGAEVKKPGASVKVSCKASGYTFTDYEMHWVRQAPGQGLEWMGAIHPGSGGTAYNQKFKGRVTMTADKSISTAYMELSRLRSDDTAVYYCTRFYSYAYWGQGTLVTVSS[human IgG1 constant region not printed] light: DVVMTQTPLSLSVTPGQPASISCRSSQSLVHSNGNTYLQWYLQKPGQSPQLLIYKVSNRFSGVPDRFSGSGSGTDFTLKISRVEAEDVGVYFCSQSIHVPYTFGGGTKVEIKRTVAAPSVFIFPPSDEQLKSGTASVVCLLNNFYPREAKVQWKVDNALQSGNSQESVTEQDSKDSTYSLSSTLTLSKADYEKHKVYACEVTHQGLSSPVTKSFNRGEC | 39.93% | 60.07% | significant inhibitory activities on tumor growth | well tolerated | 
Hu 52H5D3B8-8-L4-D4 (conjugate) heavy: EVQLVQSGAEVKKPGASVKVSCKASGYTFTDYEMHWVRQAPGQGLEWMGAIHPGSGGTAYNQKFKGRVTMTADKSISTAYMELSRLRSDDTAVYYCTRFYSYAYWGQGTLVTVSS[human IgG1 constant region not printed] light: DVVMTQTPLSLSVTPGQPASISCRSSQSLVHSNGNTYLQWYLQKPGQSPQLLIYKVSNRFSGVPDRFSGSGSGTDFTLKISRVEAEDVGVYFCSQSIHVPYTFGGGTKVEIKRTVAAPSVFIFPPSDEQLKSGTASVVCLLNNFYPREAKVQWKVDNALQSGNSQESVTEQDSKDSTYSLSSTLTLSKADYEKHKVYACEVTHQGLSSPVTKSFNRGEC |  |  |  |  | 0.06929 µg/mL
